Measured values as given in ChEMBL document CHEMBL3526104.

Columns and labels:
[1] = substrate: CC(=O)N1CCN([C@H]2CCN(C(=O)N(C)[C@H](C)c3cc(C(F)(F)F)cc(C(F)(F)F)c3)[C@@H](c3ccc(F)cc3C)C2)CC1; test: Drug metabolism assessed as human recombinant CYP3A4-mediated GSK525060 formation after 30 mins by HPLC-MS/MS method; assay type: ADME
[2] = substrate: CC(=O)N1CCN([C@H]2CCN(C(=O)N(C)[C@H](C)c3cc(C(F)(F)F)cc(C(F)(F)F)c3)[C@@H](c3ccc(F)cc3C)C2)CC1; test: Drug metabolism in human liver microsomes assessed as CYP3A4-mediated GSK525060 formation after 30 mins by HPLC-MS/MS method; assay type: ADME

B1: Cytochrome P450 3A4 (Homo sapiens) (protein)
chain: MALIPDLAMETWLLLAVSLVLLYLYGTHSHGLFKKLGIPGPTPLPFLGNILSYHKGFCMFDMECHKKYGKVWGFYDGQQPVLAITDPDMIKTVLVKECYSVFTNRRPFGPVGFMKSAISIAEDEEWKRLRSLLSPTFTSGKLKEMVPIIAQYGDVLVRNLRREAETGKPVTLKDVFGAYSMDVITSTSFGVNIDSLNNPQDPFVENTKKLLRFDFLDPFFLSITVFPFLIPILEVLNICVFPREVTNFLRKSVKRMKESRLEDTQKHRVDFLQLMIDSQNSKETESHKALSDLELVAQSIIFIFAGYETTSSVLSFIMYELATHPDVQQKLQEEIDAVLPNKAPPTYDTVLQMEYLDMVVNETLRLFPIAMRLERVCKKDVEINGMFIPKGVVVMIPSYALHRDPKYWTEPEKFLPERFSKKNKDNIDPYIYTPFGSGPRNCIGMRFALMNMKLALIRVLQNFSFKPCKETQIPLKLSLGGLLQPEKPVVLKVESRDGTVSGA
Protein B1 has a Km [1] of 10.1 µM and a Km [2] of 21.1 µM.
